Data from the supplement of paper PMC3334620.
In all, about 33,000 sequences were measured (“E-score (-0.5 to 0.5)”: median about -0.041, highest 2% from about 0.37 on). The list shows a part of the results.

molecular target: T1, Ecm22 (UniProt Q05958); assay: PBM E-score (8-mer binding enrichment) (E-score (-0.5 to 0.5)); higher = stronger / more preferred TF binding; most listed sequences are background and not binding sites; details: protein concentration: 200 nM; construct: GST-full length
T1 sequence: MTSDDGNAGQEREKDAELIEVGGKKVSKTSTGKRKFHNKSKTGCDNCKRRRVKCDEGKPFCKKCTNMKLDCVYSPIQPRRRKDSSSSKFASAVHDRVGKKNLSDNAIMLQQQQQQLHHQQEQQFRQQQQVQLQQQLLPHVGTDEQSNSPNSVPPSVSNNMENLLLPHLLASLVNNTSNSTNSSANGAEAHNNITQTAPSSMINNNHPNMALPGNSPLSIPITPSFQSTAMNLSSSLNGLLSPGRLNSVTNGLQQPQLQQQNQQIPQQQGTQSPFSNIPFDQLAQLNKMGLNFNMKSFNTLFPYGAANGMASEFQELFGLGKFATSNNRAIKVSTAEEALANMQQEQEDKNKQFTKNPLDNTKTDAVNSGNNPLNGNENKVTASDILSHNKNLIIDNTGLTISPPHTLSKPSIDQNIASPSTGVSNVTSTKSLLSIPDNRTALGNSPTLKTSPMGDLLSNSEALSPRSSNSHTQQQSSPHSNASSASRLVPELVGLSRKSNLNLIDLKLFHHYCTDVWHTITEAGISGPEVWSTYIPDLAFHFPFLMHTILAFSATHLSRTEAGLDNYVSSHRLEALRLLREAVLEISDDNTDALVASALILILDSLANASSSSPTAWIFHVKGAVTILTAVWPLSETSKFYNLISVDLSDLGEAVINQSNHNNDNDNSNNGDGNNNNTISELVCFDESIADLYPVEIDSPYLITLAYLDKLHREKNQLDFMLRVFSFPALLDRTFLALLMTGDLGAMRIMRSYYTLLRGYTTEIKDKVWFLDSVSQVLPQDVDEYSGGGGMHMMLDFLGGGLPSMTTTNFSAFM
Summary of the method: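 PURExpress in vitro transcription/translation supplied GST-tagged yeast transcription factors, either full-length or DNA-binding domain. Applied at about 100-200 nM to universal all-10-mer Agilent arrays double-stranded by primer extension, the bound protein was detected with fluorescent anti-GST. E-scores, modified Wilcoxon-Mann-Whitney statistics, were given by the Universal PBM Analysis Suite to ungapped eight-base words pooled with their reverse complements after masliner normalisation.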

| Sequence | PBM E-score |
| --- | --- |
| AGTTAGCG | 0.0306 |
| GCACAGGC | 0.0112 |
| CAGACGGC | -0.198 |
| CGGGCCGC | 0.0557 |
| AGCAGGCG | 0.0758 |
| GACGTTGA | -0.115 |
| AACATTAG | -0.0606 |
| TACAAAAA | -0.013 |
| ATCAAAAA | -0.179 |
| GATATCCA | -0.0159 |
| CGTGACTC | -0.128 |
| CGTCACAC | 0.0499 |
| CAGCAGGG | -0.186 |
| CCCTCCAC | -0.259 |
| ACATCTCA | -0.145 |
| ATTACCAG | -0.0353 |
| ACGGGTCC | 0.0774 |
| ACAACTGG | -0.155 |
| TTCTAGAA | -0.0493 |
| ATAAGACG | 0.0331 |
| TATCCTGA | 0.0693 |
| ACCGCGCG | 0.123 |

| Sequence | PBM E-score |
| --- | --- |
| CGTGTCTA | -0.0169 |
| GCGTGGAC | -0.108 |
| ACCATGGA | -0.121 |
| TGTACTAA | 0.092 |
| GCGACGCA | 0.173 |
| ACGCGAAC | 0.24 |
| CGAGATAC | 0.261 |
| GAAATACA | -0.00128 |
| GTGGTCAA | -0.0412 |
| AAGAAGAG | -0.0693 |
| AGTGGGCA | -0.0436 |
| AGTCCACC | -0.3 |
| CTCTGGGA | -0.25 |
| GATCAATA | -0.175 |
| CGTCCACG | -0.106 |
| ATAATTCG | 0.202 |
| CAAGTAGC | -0.194 |
| CGGGCTAC | -0.0124 |
| AGCTTTTA | 0.165 |
| CTAACTGA | -0.183 |
| TATGAGAA | -0.151 |
| AGGAACAT | -0.104 |

| Sequence | PBM E-score |
| --- | --- |
| CTCAGCTA | -0.238 |
| AGAAACTA | -0.145 |
| AATTCCGT | 0.0301 |
| CCCCGACA | -0.251 |
| ACGTACCT | 0.213 |
| CCTCACGC | -0.123 |
| CAATTCAC | -0.00451 |
| TGAGCACA | -0.253 |
| ACGCATGA | 0.00527 |
| CGGTGCAA | 0.0841 |
| TGCCGCAA | -0.0595 |
| ACCAAGTC | 0.00779 |
| CTCACCAG | -0.213 |
| GCGCCAGC | -0.0914 |
| ACAGGGGG | -0.239 |
| AAATGGAT | -0.0975 |
| CAACCAGC | -0.0694 |
| ATCCCGGA | -0.24 |
| CGAGTATC | 0.246 |
| ATTTCTCG | 0.229 |
| GGGGATTA | -0.0927 |
| TGCAAAAA | -0.0209 |

| Sequence | PBM E-score |
| --- | --- |
| ATCGTGGC | -0.104 |
| CCGGTTGA | -0.108 |
| GGCTGATA | -0.0685 |
| AGGAGCGC | 0.0125 |
| ACGAGCGG | 0.386 |
| GAATTACC | -0.0182 |
| GGCTGCCC | -0.0698 |
| GTACGGAC | 0.372 |
| AGACGACC | 0.0158 |
| AAAGAAAG | 0.0385 |
| AATTCTCA | -0.247 |
| AGCGACCT | 0.0578 |
| GCTAGTCC | -0.0725 |
| AATAGCAT | -0.215 |
| AGCTCTGA | -0.212 |
| AACCAGGT | -0.215 |
| ACTTTCGC | 0.0123 |
| AGGGCCGC | -0.255 |
| AACCGCGC | -0.0112 |
| GAAGTTCA | -0.152 |
